± gives the standard deviation of the averaged measurements. In all, about 33,000 sequences were measured (“E-score (dimensionless, -0.5 to 0.5)”: median about -0.049, highest 2% from about 0.37 on). This is one part of the list.
These sequences were tested on T1, PmTbr T-box DNA-binding domain (GST fusion) (assay: PBM E-score of 8-mer (E-score (dimensionless, -0.5 to 0.5)); Tbr is Tbrain of the sea star Patiria miniata (Pm) or the sea urchin Strongylocentrotus purpuratus (Sp); higher = stronger binding preference; most listed sequences are background and not binding sites). Conditions: the construct has about 5 more residues each side.
T1 sequence: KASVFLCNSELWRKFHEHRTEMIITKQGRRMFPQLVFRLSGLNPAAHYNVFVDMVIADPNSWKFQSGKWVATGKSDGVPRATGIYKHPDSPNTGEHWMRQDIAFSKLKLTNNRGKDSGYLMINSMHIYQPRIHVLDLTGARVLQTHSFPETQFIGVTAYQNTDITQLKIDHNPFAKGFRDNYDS
Procedure, shortened: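 Universal Agilent oligonucleotide arrays, made double-stranded by primer extension, were incubated with 200 nM GST-fused Tbr T-box DNA-binding domain in PBS (pH 7.5). The protein was expressed in BL21 E. coli at 20 °C and purified by glutathione affinity chromatography. After scanning and quantification, the Universal PBM Analysis Suite assigned an enrichment E-score to each ungapped 8-mer, averaged over duplicate arrays.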

Sequence	PBM E-score of 8-mer
AGTTTTAT	-0.189 ± 0.078
CCGAAGTA	-0.302 ± 0.021
CAAATAAC	-0.0624 ± 0.062
AATCAACT	-0.0611 ± 0.019
CAATGCCA	-0.0317 ± 0.036
CGTTCTTA	-0.196 ± 0.038
ACATCGCC	-0.00823 ± 0.095
AACCATTC	-0.0787 ± 0.013
CGACATAG	-0.00473 ± 0.032
TGGCATAA	-0.0902 ± 0.022
GGGGCGAC	0.114 ± 0.026
CGTACGCA	-0.0213 ± 0.11
TCCTGCAA	-0.0964 ± 0.0022
CTGGAGAC	-0.0746 ± 0.0036
TGACTGCA	0.129 ± 0.067
AAAGGACG	-0.189 ± 0.01
AAAAATTG	-0.0785 ± 0.052
TGCATCAA	-0.101 ± 0.07
ATATAAAG	-0.0621 ± 0.091
GGCGCATA	-0.116 ± 0.044
CATGAGAC	-0.161 ± 0.036
CTCTGAAG	-0.199 ± 0.0073
CAAGACCG	-0.0871 ± 0.017
ACTGCCTC	-0.266 ± 0.036
TGGCCTAA	-0.229 ± 0.046

Sequence	PBM E-score of 8-mer
AACCGTCT	0.0228 ± 0.024
ATCATCCA	-0.132 ± 0.073
CACATCGC	0.29 ± 0.046
AAAACGTC	0.0301 ± 0.031
GTCAAAAC	0.0767 ± 0.086
GATAGTAA	0.0029 ± 0.023
TATGTACA	-0.0841 ± 0.027
AAAGCCAC	-0.141 ± 0.021
AGGCCCGC	-0.121 ± 0.11
CCCACTAG	-0.0657 ± 0.029
GTGAGCTA	0.0254 ± 0.033
GACCCGAC	0.0714 ± 0.042
TATCATGA	0.0189 ± 0.11
ACCTAGAA	0.0865 ± 0.04
ACCTTATA	0.221 ± 0.084
CCAAACGG	-0.1 ± 0.012
GCCTTCCA	-0.168 ± 0.011
ATTTATAC	-0.181 ± 0.089
AATTGGCC	0.0351 ± 0.0062
AGCCGGAC	-0.302 ± 0.11
CGCAGGTA	0.0836 ± 0.0033
GGGGAGAA	-0.195 ± 0.011
CGCCCCCC	-0.251 ± 0.0097
CCGGTTAA	-0.11 ± 0.047
CGTTACTC	-0.0274 ± 0.037

Sequence	PBM E-score of 8-mer
GTAAAGTA	-0.119 ± 0.051
CCAATGTA	-0.0596 ± 0.1
GCACGACC	-0.0869 ± 0.0098
CAAGTGTC	0.38 ± 0.031
AACCAGAG	-0.205 ± 0.022
ATTCCCTC	-0.207 ± 0.063
AAGCGGGT	0.213 ± 0.05
CCTTAAGA	-0.0828 ± 0.015
GAACAGAA	-0.117 ± 0.024
ATATAGAG	-0.138 ± 0.013
ACCTCCTA	0.052 ± 0.04
CAGAATCG	-0.0163 ± 0.05
GCAGGATA	-0.214 ± 0.12
AGTTACAC	0.172 ± 0.0044
AGTTGGAT	-0.0575 ± 0.024
CGACATAC	0.0349 ± 0.023
GACGGCAC	-0.0253 ± 0.12
TCAACAGA	-0.168 ± 0.18
CGCAGTGC	0.00664 ± 0.05
AGCGAGAA	0.253 ± 0.024
ACGTATCG	-0.00463 ± 0.016
ACGTGCTC	-0.113 ± 0.097
ACGGCTCA	-0.0619 ± 0.026
ATACTAAC	-0.21559 ± 0.00021
CAGAAGCA	-0.143 ± 0.023

Sequence	PBM E-score of 8-mer
ACGTACTG	-0.0937 ± 0.083
CCCGGGCG	0.0891 ± 0.047
CACGTAGG	0.0965 ± 0.0079
CGGAATTC	-0.252 ± 0.017
CTTATTAC	-0.0798 ± 0.01
ACCGTGCC	0.0384 ± 0.033
GATCACCC	-0.0521 ± 0.077
ACTGCTGG	-0.191 ± 0.0095
CGTGCACC	-0.048 ± 0.0088
ACCTACTG	0.0087 ± 0.021
CTGCGAGA	0.212 ± 0.035
ACAATTCA	0.179 ± 0.031
ACACCTGC	0.461 ± 0.017
ATGTATTC	-0.214 ± 0.036
TCCTGTAA	-0.12754 ± 5.7e-05
CTCGGCCA	-0.191 ± 0.021
AAAGTTTG	-0.0534 ± 0.087
ACGAGTAA	-0.0778 ± 0.013
GCTCAGTA	-0.0871 ± 0.027
ATACAGCG	0.16 ± 0.034
CTTATAAC	-0.0651 ± 0.11
CTACCCAC	-0.138 ± 0.032
CTGTCAAA	0.266 ± 0.04
ATAGGCAT	-0.337 ± 0.021
ACTACTAT	-0.175 ± 0.051

Sequence	PBM E-score of 8-mer
GTCACACA	0.3901 ± 0.0019
GATGGCGC	0.106 ± 0.072
CGTGGATC	-0.236 ± 0.11
ACGTAAGA	-0.311 ± 0.089
GACTCGAA	-0.0914 ± 0.051
TAATTCAA	-0.292 ± 0.037
GCGAGTCC	-0.00724 ± 0.067
CTGTCGCC	0.315 ± 0.027
ATCGGGCC	-0.161 ± 0.05
AATCAACA	0.231 ± 0.033
CTTGAGCC	-0.0122 ± 0.073
GAGCTCTA	-0.351 ± 0.028
CGCCTGGA	0.153 ± 0.0065
ACATCTAG	-0.0563 ± 0.0079
CTTCATAC	-0.169 ± 0.023
ATCAACAC	0.369 ± 0.019
CCGTGCGA	0.294 ± 0.016
CTGAAAGA	-0.227 ± 0.088
TCTAGACA	-0.202 ± 0.044
AAGCAGAC	-0.0712 ± 0.048
AGTGGAAA	0.0588 ± 0.0019
GGCAATAC	-0.2 ± 0.057
CGAGACCG	-0.13 ± 0.033
GCCTTCGA	0.0621 ± 0.015
ACCATGGC	-0.0471 ± 0.08

Sequence	PBM E-score of 8-mer
AAAAGATA	-0.0989 ± 0.016
CCATCCCG	-0.0752 ± 0.0067
CTTATCCA	-0.081 ± 0.014
GATTTGCA	0.186 ± 0.033
AACTCCTG	0.0651 ± 0.059
TATCTCAA	-0.0203 ± 0.0083
AACCGATA	0.0224 ± 0.036
AATGGCGA	0.163 ± 0.021
ACACCGTG	0.3051 ± 0.0018
CCGGTTGC	-0.0645 ± 0.0032
GTGCTTTA	-0.0904 ± 0.095
GAGAGCGA	0.0903 ± 0.025
CCTTTGCC	-0.15 ± 0.051
AATTCGTA	-0.0402 ± 0.067
CACACATG	0.352 ± 0.0023
ACATTAGA	0.0204 ± 0.057
CCTAATAG	-0.122 ± 0.052
CGTTGCAG	-0.104 ± 0.023
GGCTTGAA	-0.122 ± 0.032
CCAACCCG	-0.0643 ± 0.028
GGTTTTAA	-0.0399 ± 0.059
AGACCCTG	-0.0402 ± 0.1
AACATGCA	-0.0907 ± 0.015
CCTAGCTC	-0.0926 ± 0.0015
TAATCGAA	-0.2 ± 0.021

Sequence	PBM E-score of 8-mer
CAAGATGG	-0.0109 ± 0.057
CCACTGCA	-0.155 ± 0.0029
AAATGGGA	-0.265 ± 0.032
CAAATTGG	0.0638 ± 0.043
GCGAAAAA	0.296 ± 0.052
AGACGGCC	-0.209 ± 0.017
CATCTAAG	-0.111 ± 0.011
AGACCTAC	-0.292 ± 0.035
CACTTTGG	0.157 ± 0.015
TCGATAAA	0.122 ± 0.033
AGGGGTTA	-0.0709 ± 0.031
GCCTTCAC	0.134 ± 0.019
CTCCGGGA	-0.177 ± 0.035
AGATGCGA	0.113 ± 0.0084
CCAAGAGA	-0.146 ± 0.038
CATCTGCG	-0.00142 ± 0.032
CGTTTTGA	-0.104 ± 0.019
AGTTGAAA	-0.168 ± 0.038
CCGACAAG	0.134 ± 0.01
CCCTCTCC	-0.0929 ± 0.0084
ATATGTGA	0.24 ± 0.064
CCAGTGGA	-0.0867 ± 0.012
